Here are results for 109 molecules from PubChem BioAssay AID1362 (SRMLSC, 2008).

The list shows a part of the results. These are further read-outs of the screen, such as a control signal, another cell line or another target. No call is given for them. The list favours compounds with an active or inconclusive main result.

The test in a line: growth inhibition of WT strain, primary screen, mitochondrial fusion inhibitor project, WT and mutant strains, chemical genetic (AID 1362). Note: tested in S. cerevisiae. As to conditions: mitochondrial fusion phenotypic screen, at 10 µM.
Consider `COc1ccc(OC)c(NC(=O)COC(=O)Cc2ccc(Br)cc2)c1`, for which the inhibition amounted to 11.8%. Take `Fc1ccccc1C1c2cccn2CCN1C(=S)Nc1cccc(Br)c1` (centres undefined): the inhibition was determined as 46.1%. Regarding `CC1CCN(S(=O)(=O)c2ccc(N/N=C(/C#N)C(N)=O)cc2)CC1`, the inhibition was -1.68%. As for `CCOP(=O)(OCC)c1nc(-c2cccc3ccccc23)oc1NCCc1ccc(OC)cc1`, the inhibition was found to be 31.5%. In the case of `O=C(NCCc1ccc(Cl)cc1)c1ncn[nH]1` it was 37.5%. With `N/C(=N\OC(=O)C12CC3CC(CC(C3)C1)C2)c1ccccc1` the figure was 69.6%; with `CC1=[N+](C)c2ccc3ccccc3c2C1(C)C`, 46.8%; with `O=C(OCc1cc(Cl)ccc1OC(F)F)c1cncc(Br)c1`, 32.9%. Regarding `CCOC(=O)c1cnc(-n2nc(C)cc2C)nc1N(CC)CC`, the inhibition worked out at 53.5%.

In the case of `O=C1C(Nc2ccccc2)=C/C(=N/S(=O)(=O)c2cccs2)c2ccccc21`, the inhibition was found to be 93.2%. `Cc1cc2c(cc1C)CSC(c1ccccc1OC(=O)C(C)(C)C)SC2`: the inhibition stood at 7.47%. Regarding `Cc1ccccc1N1CCN(C(=O)c2ccc(Oc3ccc(C(F)(F)F)cn3)cc2)CC1`, the inhibition was 49.2%. In the case of `Cc1ccc(C)c(Sc2ccc(NC(=O)CCl)cc2)c1`, the inhibition turned out to be 27.8%.

Regarding `O=C(/C=C/c1c[nH]c2ccccc12)c1cccc2ccccc12`, the inhibition amounted to 24.9%. Regarding `Cc1ccc(C(C(=O)NC2CCCCC2)N(Cc2ccco2)C(=O)Cc2c[nH]c3ccccc23)o1` (centres undefined), the inhibition came out at 18.5%. With `CC(=O)Nc1cccc(-c2csc(Nc3ccc(Cl)cn3)n2)c1` the figure was 43.9%; with `Fc1cccc(Cn2cc(C(=S)N3CCCCC3)c3ccccc32)c1`, 68%; with `O=C(CC1CC2CCC1C2)Nc1nc(-c2ccccn2)cs1` (centres undefined), 63.4%. In the case of `Cc1ccccc1-c1ccc(C(=O)Nc2cccc(F)c2)o1`, the inhibition was determined as 28.4%. As for `CCn1c(C(=O)OC)cc2c1ccn2-c1ccc(F)cc1`, the inhibition is 37.1%.

Consider `COCCn1c(SCc2nnc(-c3ccccc3)o2)nc2sc3c(c2c1=O)CCC3`, for which the inhibition is 33.5%. As to `Cc1cc(C)c2c(c1)/C(=C/C(=O)c1ccc(Br)s1)C(=O)N2`, the inhibition was found to be 70.6%. In the case of `CC1CC(N(C(=O)c2ccc(Cl)cc2)c2ccccc2)c2ccccc2N1C(=O)c1ccco1` (centres undefined) it was 55.2%. `O=C(COc1ccc(Cl)cc1)NCCSCc1cccc(Cl)c1`: the inhibition came to 45.1%. Consider `Cc1onc(-c2ccccc2Cl)c1C(=O)Nc1sc2c(c1C(N)=O)CCC(C)C2` (centres undefined), for which the inhibition turned out to be 8.11%. On to `CCOc1cccc(Oc2ncccc2C(=O)/C(C#N)=C/N(C)C)c1`, for which the inhibition is 21.9%.

Consider `O=C(Nc1ccc(C(O)(C(F)(F)F)C(F)(F)F)cc1)c1ccc(Cl)c([N+](=O)[O-])c1`, for which the inhibition amounted to 17.8%. As for `CN1/C(=C\C(=O)Nc2ccc(Cl)cc2)C(C)(C)c2ccccc21`, the inhibition is 42.1%. Take `CC1=Nc2ccccc2/C1=C\c1sc(Nc2ccc(C)cc2)nc1O`: the inhibition came to 14%. Regarding `O=[N+]([O-])c1cc(Cl)ccc1N1CCN(c2ccccc2O)CC1`, the inhibition turned out to be 48.1%. As for `CC1=CCC(C(=O)O)(C(=O)N/N=C/c2cccs2)C(c2ccc([N+](=O)[O-])cc2)C1` (centres undefined), the inhibition came to 60.4%. With `Cc1ccc(C)c(N2CCN(CCCNC(=O)Cn3cccc3C(=O)c3ccccc3C)CC2)c1` the figure was 48%; with `Cc1cccc(C)c1NC(=S)Nc1ccc(Cl)c(Cl)c1`, 51.1%; with `O=C(OCC(=O)N1CCN(C(=O)c2ccco2)CC1)c1cn(-c2ccccc2)nc1-c1ccccc1`, 24.9%.

As for `Cc1c(Cl)cccc1Nc1nc(N)nc(CSc2nc3ccccc3s2)n1`, the inhibition worked out at 35.5%. Consider `Clc1ccc(-c2nnc(-c3ccccc3)c(N3CCSCC3)n2)cc1`, for which the inhibition is 35.3%.

In the case of `CC(C)(C)c1ccc(NC(=O)c2ccccc2)c([N+](=O)[O-])c1`, the inhibition is -3.45%. For the molecule `Cc1ccc(N=C(NOCc2ccc(Cl)cc2Cl)c2nonc2N)c(C)c1`, the inhibition is -3.12%. With `FC(F)(F)c1cccc(NC(=S)NCC2COc3ccccc3O2)c1` (centres undefined), the inhibition was 47.9%. In the case of `Clc1ccc(CSc2nnc(-c3ccncc3)o2)c(Cl)c1`, the inhibition was 2.5%.

`CCOC(=O)Cc1c(Sc2ccccc2)c2ccccc2n1C`: the inhibition worked out at 47.2%. In the case of `Cc1cc(Nc2cccc(Cl)c2)nc(NCc2ccccc2)n1`, the inhibition came out at 97.1%. In the case of `Cc1ccccc1Cn1c(Cc2ccccc2)nc2ccccc21` it was 69.1%.

Take `CC(Oc1ccc(Cl)cc1Cl)C(=O)NCCCCc1ccccc1` (centres undefined): the inhibition was -2.64%. `CC(C)NS(=O)(=O)c1ccc(NC(=O)C2CC3C=CC2C3)cc1` (centres undefined): the inhibition is 15.9%. Consider `CN1/C(=C\C=Nc2ccc3ccccc3c2)C(C)(C)c2ccccc21`, for which the inhibition is 0.23%. In the case of `CCOC(=O)CNS(=O)(=O)c1cc(-c2nn(C)c(=O)c3ccccc23)ccc1C` it was 1.59%; in that of `CCn1ccnc1CN(C)Cc1cn(-c2ccc(C)cc2)nc1-c1cccc(C)c1`, 63.3%. On to `CC1(C)C2CC=C(/C=N/NC(=S)NCCc3ccccc3)C1C2` (centres undefined), for which the inhibition stood at 39.6%.

As to `CN(C)CCCN(C(=O)COc1ccc(Cl)cc1)c1nc2ccc(F)cc2s1`, the inhibition was found to be 33.5%. As for `CC(C)N(Cc1nc(-c2ccc(Cl)cc2)no1)C(=O)CCC1CCCC1`, the inhibition came out at 17.7%. With `Cc1ccc(Nc2cc(C)nn2-c2nc(C)cc(C)n2)cc1` the figure was 67.5%; with `Cc1cc(Cl)n2c(nc3cc(F)c(F)cc32)c1C#N`, 75.6%; with `O=C(COc1ccccc1[N+](=O)[O-])N/N=C/C=C/c1ccco1`, -6.91%. In the case of `Cc1cccc(N=Nc2c(C)[nH]n(C(N)=S)c2=O)c1C` it was 62.8%. For `CCOC(=O)c1sc2nc(CSc3ccccc3)nc(N3CCCN(C)CC3)c2c1C`, the inhibition was found to be 88.1%.

As to `CC1CCN(c2ccccc2NC(=S)NC(=O)C(C)(C)C)CC1`, the inhibition is 29%.

With `CC(=O)N(Cc1cc2c(C)cc(C)cc2[nH]c1=O)C1CCCCC1`, the inhibition was 97.4%. Turning to `CSc1ccc(Cl)c(C(=O)NCCOc2cc(C)ccc2C(C)C)c1`, the inhibition stood at 9.52%. On to `CCCCCCCn1c2c(c(=N)c3ccccc31)CCC2`, for which the inhibition was 79.7%. As for `COc1cccc(-c2nc(-c3ccccc3)nc(N3CCN(C)CC3)c2C#N)c1`, the inhibition stood at 71.6%. Regarding `Cc1ccc(S(=O)(=O)Nc2cccc3ncccc23)s1`, the inhibition worked out at 70.2%. For the molecule `CC(C)(C)c1ccccc1NC(=S)NC1CCCCC1`, the inhibition was found to be 63.3%. `S=C(Nc1ccc(Oc2ccccc2)cc1)NC1CCCC1`: the inhibition stood at 44.4%. In the case of `CN(C)CCNC(=O)COc1ccc(C23CC4CC(CC(C4)C2)C3)cc1` it was 94.8%; in that of `COc1cc2c(C(=O)NCc3ccc(C)o3)cn(CC(C)C)c(=O)c2cc1OC`, 1.77%; in that of `Cc1cccnc1NC(=S)NCCc1ccccc1`, 58.7%. With `O=C1C=C(NC(=O)Nc2ccc(Cl)c(Cl)c2)CCC1` the figure was 67.2%; with `C=CCSc1nnc(NC(=O)COc2ccc3ccccc3c2)s1`, -13.2%; with `CC(C)(C)c1ccc(C(=O)NC(=S)NNC(=O)c2cccs2)cc1`, 73.8%. As to `O=C(Nc1nc(-c2cccs2)cs1)c1ccc(Cl)cc1`, the inhibition was determined as 30.3%. As for `CC(C)C(=O)N1CCC(CN=Cc2c(O)n(C3CCCCC3)c(=O)n(C3CCCCC3)c2=O)CC1`, the inhibition is 16.6%. `CSCc1nnc(NC(=O)c2ccc(S(=O)(=O)N(CC(C)C)CC(C)C)cc2)o1`: the inhibition was found to be 11%. `COc1cc(C2NCC(c3ccc(Cl)cc3Cl)c3c2[nH]c2ccccc32)cc(OC)c1OC` (centres undefined): the inhibition worked out at 48.7%.

`S=C1NCCc2ccccc2C1c1ccccc1Cl` (centres undefined): the inhibition was determined as 45.5%. Consider `Nc1c(-c2ccccc2)c(CSc2nc3ccccc3[nH]2)nn1-c1ccc(Cl)cc1`, for which the inhibition stood at 24.8%. As for `CC(C)c1ccc(C2CC(c3ccc(Br)cc3)=NN2C(N)=S)cc1` (centres undefined), the inhibition was determined as 54%. In the case of `FC(F)(F)c1cc(-c2ccccc2)nc(NC2CCCC2)n1`, the inhibition amounted to 50.3%. As to `O=[N+]([O-])c1ccc(-c2csc3[n+]2CCS3)cc1`, the inhibition was 67.3%. On to `Cc1cc(N/N=C/c2ccc(Cl)cc2Cl)nc(NCc2ccccc2)n1`, for which the inhibition came to 81%. With `Nn1c(Cc2cccc3ccccc23)nnc1SCCOc1ccc(Br)cc1` the figure was 57.9%; with `Cc1ccc(NC(=O)c2cc(C)n(-c3cccc(C)c3)c2C)cc1`, 21.4%. With `CCCCn1c(-c2csc(CCC)c2)n[nH]c1=S` the figure was 60%; with `CCOc1ccccc1NC(=O)C(OC(=O)c1ccc(O)cc1)c1ccccc1` (centres undefined), 25.8%. `CCCCn1c(-c2csc(CC)c2)n[nH]c1=S`: the inhibition worked out at 55.8%. With `COC(=O)C1CCN(C(=O)c2cc(OC)c(OC)c(OC)c2)CC1`, the inhibition amounted to 19.6%. With `O/N=C/c1cc(Br)cc(Br)c1OCc1ccccc1` the figure was 28.8%. For the molecule `C=C1/C(=C\C=C2/CCC[C@]3(C)[C@@H]([C@H](C)CCCC(C)(C)O)CC[C@@H]23)C[C@@H](O)C[C@@H]1O`, the inhibition was 30.1%. In the case of `Cn1ccnc1SCC(=O)c1ccc(Br)cc1` it was 23.5%; in that of `O=C(CNC(=S)N(Cc1ccccc1)Cc1cccs1)NCc1ccc(F)cc1`, 7.5%; in that of `Cc1ccccc1CS(=O)(=O)c1nnc([C@H](CC(C)C)NC(=O)OC(C)(C)C)o1`, 68.9%.

`CSC(=S)N/N=C/c1ccc(Br)cc1`: the inhibition stood at 23.6%.

As to `O=S(Cc1ccc(Br)cc1)Cc1nnc(SCc2c(F)cccc2Cl)n1-c1ccccc1` (centres undefined), the inhibition is -6.26%. As for `Cc1cccc(OCCCSc2nc3ccc(C)cc3[nH]2)c1`, the inhibition was found to be 48.4%. As to `CCN1CCN(CCNC(=O)c2ccc(/C=C3\Sc4ccccc4N(Cc4ccccc4F)C3=O)cc2)CC1`, the inhibition was 8.53%.

Turning to `CCOc1ccc(Nc2nc(N3CCCCC3)nc(N3CCCCC3)n2)cc1`, the inhibition was 21.4%. Consider `Clc1ccc(Oc2cccc(/C=N/n3cnnc3)c2)cc1`, for which the inhibition is 54.3%. In the case of `COc1ccccc1CNC(=S)NCCc1ccccc1` it was 57.7%; in that of `CCOC(=O)/C(=C\c1cccnc1)C(=O)c1cc(C(C)=O)c(Nc2ccccc2)s1`, 33.8%. `CC(=O)c1ccc(NC(=S)NC(C)c2ccc(Cl)cc2Cl)cc1` (centres undefined): the inhibition came out at 78.9%.

For `Cc1nc(NC(C)c2ccccc2)c2oc3ccccc3c2n1` (centres undefined), the inhibition worked out at 56.2%. `CCC1=NN2C(=N)/C(=C\c3cccn3-c3ccc(C)cc3C)C(=O)N=C2S1`: the inhibition turned out to be 16.1%. As for `O=C(NC(=S)NCCC1=CCCCC1)c1ccccc1Br`, the inhibition was 3.54%. Turning to `CCCCCOc1ccc(CSc2n[nH]c(C)n2)cc1`, the inhibition turned out to be 78.3%. In the case of `O=C(Cc1cn(Cc2cccc(Cl)c2)c2ccccc12)N1CCCCCC1`, the inhibition worked out at 22.8%. Turning to `Cc1cc2c3c(c1)C1(SCC(=O)N1c1ccc(F)cc1)C(=O)N3C(C)(C)CC2C` (centres undefined), the inhibition was 10.1%. With `C/C(=N\NC(=S)NCc1ccccc1)c1ccc(C(C)(C)C)cc1`, the inhibition amounted to 39.2%. `CCC1C(c2ccccc2)N(C)C(c2ccccc2)CC1(O)c1ccccc1` (centres undefined): the inhibition was 64.5%. As for `COC(=O)c1c(NC(NC(=O)C(C)C)C(Cl)(Cl)Cl)sc2c1CCCC2` (centres undefined), the inhibition was determined as 58.7%.

By inhibition is commonly meant the drop in the measured response relative to a control, in per cent.
